Source: PubChem BioAssay AID2782 (National Center for Advancing Translational Sciences (NCATS), 2010)
The shares of active, inactive and inconclusive entries below differ from those in the screen. The call rests on the fitted dose curve; in most records, active means well fitted inhibition curve with a large enough effect in the polarisation, with a control signal flat (not every such curve was filed as active); inconclusive means small, poorly fitted or top-dose-only effect, or effect the other way, or a change in a side signal; inactive means no such curve, though single readings can be large or run the other way; the % refers to the polarisation. Potencies beside an inconclusive call are fits to weak or partial responses and may not hold up. A note “side channel” means that the fit belongs to a control or component signal, not to the main read-out.

Assay: Confirmation of Inhibitors Targeting the Menin-MLL Interaction in MLL Related Leukemias: Competition With Texas Red Labeled MLL-derived Mutant Peptide
Settings: fluorescence polarization, Texas Red MLL peptide displacement; series mostly up to 94.6 µM
How it was run: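 Hits from the primary screen were retested: compounds were incubated 1 hr at ambient with 200 nM menin, 50 nM Texas Red mutant peptide and 25 nM fluorescein wild-type peptide (Tris pH 7.5, BSA-supplemented buffer), then fluorescence polarization was read.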
Potency means the concentration at half of the fitted maximal effect; tags describe the fitted curve by direction and shape or compound fluorescence and quenching.

Potency, inconclusive:
Cc1ccc2nc(-c3ccc(NC(=O)COC(=O)c4ccc(Br)o4)cc3)sc2c1 15.9 µM [inhibitor, full curve]
O=C(Nc1nnc(SCc2ccc(F)cc2)s1)c1ccc2c(c1)C(=O)N(c1ccccc1Cl)C2=O 25.1 µM [quencher, side channel, full curve, poor fit]
O=C1C(SCCO)=C(SCCO)C(=O)c2ccccc21 126 µM [quencher, side channel, partial curve]
